Source: PubChem BioAssay (NCI)
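Cells were grown in 96-well plates and exposed to each compound for 48 hours at five concentrations; endpoints were interpolated linearly between bracketing concentrations, or set to the highest concentration if not reached. TGI is the concentration that stops growth completely.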

What was measured:
Test in all cases: inhibition of tumour cell growth, NCI panel, 48 h
[1] = tested on: A498 renal
[2] = tested on: NCI-H226 lung
[3] = tested on: OVCAR-4 ovarian
[4] = tested on: DU-145 prostate
[5] = tested on: MCF7 breast
[6] = tested on: A549 NSCLC
[7] = tested on: CAKI-1 renal
[8] = tested on: SW-620 colon
[9] = tested on: UACC-62 melanoma
[10] = tested on: HL-60(TB) leukemia
[11] = tested on: LOX IMVI melanoma
[12] = tested on: HCT-15 colon
[13] = tested on: OVCAR-5 ovarian
[14] = tested on: SNB-75 CNS
[15] = tested on: SF-268 CNS
[16] = tested on: EKVX NSCLC
[17] = tested on: SK-MEL-5 melanoma
[18] = tested on: HS 578T breast
[19] = tested on: KM12 colon
[20] = tested on: HT29 colon
[21] = tested on: PC-3 prostate
[22] = tested on: K-562 leukemia
[23] = tested on: COLO 205 colon
[24] = tested on: MDA-MB-435
[25] = tested on: SF-539 CNS
[26] = tested on: SK-MEL-28 melanoma
[27] = tested on: UO-31 renal
[28] = tested on: HCC-2998 colon
[29] = tested on: U251 CNS
[30] = tested on: SK-MEL-2 melanoma
[31] = tested on: T-47D breast
[32] = tested on: SK-OV-3 ovarian
[33] = tested on: 786-0 renal
[34] = tested on: NCI/ADR-RES ovarian
[35] = tested on: TK-10 renal
[36] = tested on: MALME-3M melanoma
[37] = tested on: IGROV1 ovarian
[38] = tested on: NCI-H460 lung
[39] = tested on: HOP-92 NSCLC
[40] = tested on: MOLT-4 leukemia
[41] = tested on: HOP-62 NSCLC
[42] = tested on: CCRF-CEM leukemia
[43] = tested on: RPMI-8226 leukemia
[44] = tested on: OVCAR-3 ovarian
[45] = tested on: MDA-MB-231 breast
[46] = tested on: NCI-H522 lung
[47] = tested on: M14 melanoma
[48] = tested on: ACHN renal
[49] = tested on: SF-295 CNS
[50] = tested on: NCI-H23 lung

Question: For `COc1cc2c(cc1OC)-c1[nH]c3ccccc3c1CC(=O)N2`, which TGI [1] is on record?
Answer: Its TGI is over 100 µM.

Question: And the TGI [2]?
Answer: Its TGI is over 100 µM.

Question: What about the TGI [3] of the same compound?
Answer: The TGI was over 100 µM.

Question: What about the TGI [4] of the same compound?
Answer: Its TGI is over 100 µM.

Question: And the TGI [5]?
Answer: Its TGI is over 100 µM.

Question: And the TGI [6]?
Answer: The TGI was over 100 µM.

Question: What about the TGI [7] of the same compound?
Answer: The TGI was 50.4 µM.

Question: And the TGI [8]?
Answer: The TGI was over 100 µM.

Question: What about the TGI [9] of the same compound?
Answer: The TGI was 72 µM.

Question: What about the TGI [10] of the same compound?
Answer: Its TGI is over 100 µM.

Question: And the TGI [11]?
Answer: The TGI was over 100 µM.

Question: What about the TGI [12] of the same compound?
Answer: The TGI was over 100 µM.

Question: And the TGI [13]?
Answer: The TGI was over 100 µM.

Question: What about the TGI [14] of the same compound?
Answer: Its TGI is over 100 µM.

Question: What about the TGI [15] of the same compound?
Answer: The TGI was over 100 µM.

Question: What about the TGI [16] of the same compound?
Answer: The TGI was 67.3 µM.

Question: What about the TGI [17] of the same compound?
Answer: The TGI was 71.9 µM.

Question: What about the TGI [18] of the same compound?
Answer: Its TGI is 4.67 µM.

Question: And the TGI [19]?
Answer: The TGI was 66.2 µM.

Question: And the TGI [20]?
Answer: Its TGI is over 100 µM.

Question: What about the TGI [21] of the same compound?
Answer: Its TGI is over 100 µM.

Question: What about the TGI [22] of the same compound?
Answer: Its TGI is over 100 µM.

Question: And the TGI [23]?
Answer: Its TGI is 62.2 µM.

Question: What about the TGI [24] of the same compound?
Answer: The TGI was 56.1 µM.

Question: What about the TGI [25] of the same compound?
Answer: Its TGI is over 100 µM.

Question: What about the TGI [26] of the same compound?
Answer: Its TGI is 79.3 µM.

Question: What about the TGI [27] of the same compound?
Answer: The TGI was over 100 µM.

Question: What about the TGI [28] of the same compound?
Answer: Its TGI is 89.2 µM.

Question: What about the TGI [29] of the same compound?
Answer: The TGI was over 100 µM.

Question: And the TGI [30]?
Answer: The TGI was 85.6 µM.

Question: What about the TGI [31] of the same compound?
Answer: Its TGI is over 100 µM.

Question: And the TGI [32]?
Answer: Its TGI is over 100 µM.

Question: What about the TGI [33] of the same compound?
Answer: Its TGI is over 100 µM.

Question: What about the TGI [34] of the same compound?
Answer: The TGI was over 100 µM.

Question: What about the TGI [35] of the same compound?
Answer: The TGI was over 100 µM.

Question: And the TGI [36]?
Answer: Its TGI is 80.1 µM.

Question: What about the TGI [37] of the same compound?
Answer: Its TGI is over 100 µM.

Question: And the TGI [38]?
Answer: Its TGI is over 100 µM.

Question: And the TGI [39]?
Answer: Its TGI is over 100 µM.

Question: And the TGI [40]?
Answer: Its TGI is over 100 µM.

Question: And the TGI [41]?
Answer: The TGI was over 100 µM.

Question: And the TGI [42]?
Answer: Its TGI is over 100 µM.

Question: What about the TGI [43] of the same compound?
Answer: Its TGI is over 100 µM.

Question: What about the TGI [44] of the same compound?
Answer: Its TGI is over 100 µM.

Question: What about the TGI [45] of the same compound?
Answer: The TGI was over 100 µM.

Question: And the TGI [46]?
Answer: Its TGI is 46.4 µM.

Question: What about the TGI [47] of the same compound?
Answer: Its TGI is over 100 µM.

Question: And the TGI [48]?
Answer: The TGI was over 100 µM.

Question: What about the TGI [49] of the same compound?
Answer: Its TGI is over 100 µM.

Question: And the TGI [50]?
Answer: The TGI was 54.5 µM.
